In patent publication US20180185510A1, “ANTIBODY DRUG CONJUGATES OF KINESIN SPINDEL PROTEIN (KSP) INHIBITORS WITH ANTI-B7H3-ANTIBODIES” (BAYER PHARMA AKTIENGESELLSCHAFT, priority 2015, published 2018):

B1: 194L1 (conjugate)
heavy: QVKLQQSGAELVKPGASVKLSCKASGYTFTNYDINWVRQRPEQGLEWIGWIFPGDGSTQYNEKFKGKATLTTDTSSSTAYMQLSRLTSEDSAVYFCARQTTATWFAYWGQGTTVTVSS[omitted - human IgG1 constant region]
light: DIELTQSPTTLSVTPGDRVSLSCRASQSISDYLHWYQQKSHESPRLLIKYASQSISGIPSRFSGSGSGSDFTLSINSVEPEDVGVYYCQNGHSFPLTFGAGTKLELKRTVAAPSVFIFPPSDEQLKSGTASVVCLLNNFYPREAKVQWKVDNALQSGNSQESVTEQDSKDSTYSLSSTLTLSKADYEKHKVYACEVTHQGLSSPVTKSFNRGEC
B2: Example 274L1 (conjugate)
heavy: QVKLQQSGAELVKPGASVKLSCKASGYTFTNYDINWVRQRPEQGLEWIGWIFPGDGSTQYNEKFKGKATLTTDTSSSTAYMQLSRLTSEDSAVYFCARQTTATWFAYWGQGTTVTVSS[omitted - human IgG1 constant region]
light: DIELTQSPTTLSVTPGDRVSLSCRASQSISDYLHWYQQKSHESPRLLIKYASQSISGIPSRFSGSGSGSDFTLSINSVEPEDVGVYYCQNGHSFPLTFGAGTKLELKRTVAAPSVFIFPPSDEQLKSGTASVVCLLNNFYPREAKVQWKVDNALQSGNSQESVTEQDSKDSTYSLSSTLTLSKADYEKHKVYACEVTHQGLSSPVTKSFNRGEC

Test system: Raji: human Burkitt's lymphoma cells
Experiment: CTG assay, cytotoxic effects of the anti-B7H3 ADCs, Raji
Type: cell-based
Details: growth inhibition vs day 0, 72 h incubation, B7H3-negative cells
Method: The analysis of the cytotoxic effects of the anti-B7H3 ADCs was carried out with various cell lines:
The cells were cultivated by the standard method as stated by the American Tissue Culture Collection (ATCC) for the cell lines in question.
The cells were cultivated according to the standard method using the growth media listed under C-1. […] The cells were then incubated in an incubator at 37° C. and 5% carbon dioxide. In a parallel plate, the cell vitality was determined at the start of the drug treatment (day 0) using the Cell Titer Glow (CTG) Luminescent Cell Viability Assay (Promega #G7573 and #G7571). To this end, 100 μl of the substrate were added per cell batch, the plates were then covered with aluminium foil, shaken on the plate shaker at 180 rpm for 2 minutes, allowed to stand on the laboratory bench for 8 minutes and then measured using a luminometer (Victor X2, Perkin Elmer). The substrate detects the ATP content in the living cells, generating a luminescence signal the height of which is directly proportional to the vitality of the cells. […] From the measured data, the IC50 of the growth inhibition in comparison to day 0 was calculated using the DRC (dose response curve) analysis spreadsheets with a 4-parameter fit. […]

Molecule	IC50
B1	> 300 nM
B2	115 nM
